Laboratory results taken from the RNAGym collection of RNA variant scans (doi:10.7554/elife.90254).
Read counts are not given, so values of variants with three or more changes are uncertain.

B1: OR4K15 (parent)
chain: GUUAACGGUCAUAGGCCAUGGAAACUAGGAGCACCAUUUCGCUGCCAGUGAAGAAAUGAACAAAGAAAAUCUGGGCCAGGCAGGCAUCAAAAGAAAUAGUCUUGCGCUCAACCAGAAAGUCUGUAAUCAUUUUAAGGGUA

Variants of: B1
Assay: self-cleavage, relative activity (ratio to wild type); higher = more cleavage; in vitro, sequencing; the parent is a self-cleaving ribozyme

Variant | self-cleavage
GUUAACGGUCAUAGGCCAUGGAAUCUAGGAGCACCAUUCCGCUGCCAGUGAAGAAAUGAACAAAGAAAAUCUGGGCCAGGCAGGCAUCAAAAGAAAUAGACUUGCGCUCAACCAGAAAGUCUGUAAUCAUUUUAAGGGUA [A24U U39C U100A] | 0.58
GUUAACGGUCAUAGGCCAUGGAAACUAGGAGCGCCAUUUCGCUGCCAGUGAAGAAAUGAACAAAGAAAAUCGGGGCCCGGCAGGCAUGUAAAGAAAUAGUCUUGCGCUCAACCAGAAAGUCUGUAAUCAUUUUAAGGGUA [A33G U72G A78C C88G A89U] | 0.08
GUUAACGGUCAUAGGCCAUGGAAACUAGGAGCACCAUUUCGCUGCCAGUGAAGAACUGAACAGAGAAAAUCUGGGCCAGGCAGGCAUCAAAAGAAAUAGUCUUGCGCUCAACCAAAAAGUCUGUAAUCAUUUUAAGGGUA [A56C A63G G115A] | 0.09
GUUAACGGUCAUAGGCCAUGGAAACUAGGAGCACCAUUUCGCUGCCAGUGAAGAAAUGGACAAUGAAAAUCUGGGCCAGGCAGGCAUCAAAAGAAAUAGUCUUGCGCUCAACCAGAGAGUCUGUAAUCAUUUUAAGGGUA [A59G A64U A117G] | 1.79
GUUAACGGUCGUAGGCCAUGGAAACUAGGAGCACCAUUUCGCUGCCAGCGAAGAAAUGAACAAAGAAAAUCCGGGCCAGGCUGGCAUCAAAAGAAAUAGUCUUGCGCUCAACCAGAAGGUCUGUAAUCAUUUUAAGGGUA [A11G U49C U72C A82U A118G] | 0.05
GUUAACGGUCAGAGGCCAUGGAAACUAGGAGCACCAUUUCGCUGCCAGUGAAGAAAUGAACAAGGAAAAUCUGGGCCAGGCAGGCAUCGAAAGAAAUAGUCUUGCGCUCAACCAGAAAGUCUGUAAUCAUUUUAAGGGUA [U12G A64G A89G] | 0.93
GUUAACGGUCAUAGGCCAUGGAAACUAGGAGCACCAUUUCGCUGCCAGUGAAGAAAUGGACAAAGAAAAUCUGGGCCAGGCAGGCAUCAAAAGAAAUAGUUCUGCGCUCAACCAGAAAGUCUGUAAUCACUUUAAGGGUA [A59G C101U U102C U130C] | 1.06
GUUAACGGCCAUAGGCCAUGGAAACUAGGAGCACCAUUUCGCUGCCAGUGAAGAAAUGAACAAAGAAAAUCUGGGCCAGGCAGGCAUCAAAAGAAAUAGUCUUGCGCUCAACCAGAAAGCCUGUAAUCAUCUUAAGGGUA [U9C U120C U131C] | 0.45
GUUAACGGUCAUAGGCCAUGGAAACUAGGAGCACCAUUCCGCUGCCAGUGAAGAAAUGAACAAAGAAAACCUGGGCCAGGCAGGCAUCAAAAGAAAUAGUCUUGCGCUCAACCAGAAAGACUGUAAUCAUUUUAAGGGUA [U39C U70C U120A] | 0.6
GUUAACGGUCAUAGGCCAUGGAAACUAGGAGCACCAUUUCGCUGCCAGUGAAGAAAUGAACAAAGAGAAUCUGGGCCAGGCAGGCACCAAAAGAAAUAGUCUUGCGCUCAGCCAGAAAGUCUGUAAUCAUUUUAAGGGUA [A67G U87C A111G] | 0.02
GUUAACGGUCAUAGGCCAUGGAAACUAGGAGCACCGUUUCGCUGCCAGUGAAGAAAUGAACAAAGAAGAUCUGGGCCAGGCAGGCAUCAAAAGAAAUAGUCUUGCGCUCAACCAGAAAGUCUGUAAUCACUUUAAGGGUA [A36G A68G U130C] | 1.22
GUUAACGGUCAUAGGCCAUGGAAACUAGGAGCACCAUUUCGCUGCCAGUGAAGAAAUGAACAAAGAAAAUCUGGGCCAGGCAGGCAUCAAAAGAAGUGGUCUCGCGCUCAACCAGAAAGUCUGUAAUCAUUUUAAGGGUA [A96G A98G U103C] | 0.18
GUUAAUGGUCAUAGGCCAUGGAAACUAGGAGCACCAUUUCGCUGCCAGUGAAGAAAUGUACAAAGAAAAUCUGGGCCAGGCAGGCAUCAAAAGAAAUAGUCUUGCGCACAACCAGAAAGUCUGUAGUCAUCUUAAGGGUG [C6U A59U U108A A126G U131C A140G] | 0
GUUAACGGUCAUAGGCCAUGGAAACUAGGAGCACCAUUUCGCUGCCAGUGAAGAAACGAACAAAGAGAAUCUGGGCCAGGCGGGCAUCAAAAGAAAUAGUCUUGCGCUCAACCAGAAAGUCUGUAAUCAUUUUAAGGGUA [U57C A67G A82G] | 0.38
GUUAACGGUCAUAGGCCGUGGAAACUAGGAGCACCAUUUCGCUGCCAGUGAAGAAAUGAACAAAGAAAAUCUGGGCCAGGCAGGCAUCAAUAGAAAUAGUCUUGCGCUCAACCAGGGAGUCUGUAAUCAUUUUAAGGGUA [A18G A91U A116G A117G] | 0.11
GUUAACGGUCAUAGGCCACGGAAACUAGGAGCACCAUUUCGCUGCCAGUGAAGAAAUGAACAAAGAAAAUCUGGGCCAGGCAGGCAUCAAAAGAGAUAGUCUUGCGCUCAACCAGAAAGUCUGCAAUCAUUUUAAGGGUA [U19C A95G U124C] | 0.43
GUUAACGGUCAUAGGCCAUGGAAACUAGGAGCACCAUUUCGCCGCCUGCGAAGAAAUGAACAAAGAAAAUCUGGGCCAGGCAGGCAUCAAAAGAAAUAGUCCUGCGCUCAACCAGAAAGUCUGUAAUCAUUUUAAGGGUA [U43C A47U U49C U102C] | 1.09
GUUAACGGUCAUAGGCCAUGGAGACUAGGAGCACCAUUUCGCUGCCAGUGAAGAGAUGAACAAAGAAAAUCUGGGCCAGGCAGGCAUCAAAAGAAAUAGUCUUGCGCUUAACCAGAAAGUCUGUAAUCAUUUUAAGGGUA [A23G A55G C109U] | 0.58
GUCAGCGGUCAUAGGCCACGGAAACUAGGAGCACCAUUUCGCUGCCAGUGAAGAAAUGAACAAAGAAAAUCUGGGCCAGGCAGUCAUCAGAAGAAAUAGUCUUGCGCUCAACCAGAAAGUCUGUAAUCAUUUUAAGGGUA [U3C A5G U19C G84U A90G] | 0.82
GUUAACGGUCAUAGGCCAUGGAAGCUAGGAGCACCAUUUCGCUGCCAGUGAAGAAAUGAACAAAGAAAAUCUGGGCCAGGCGGGCAUCAAAAGAGAUAGUCUUGCGCUCAACCAGAAAGUCUGUAAUCAUUUUAAGGGUA [A24G A82G A95G] | 0.31
GUUAACGGUCAUAGGCCAUGGAAACUGGGAGCACCAUUUCGCUGCCAGUGAAGAAACGAACAAAGAAAAUCUGGGCCAGGCAGGCAUCAAAAGAAAUAGUCUUGCGCUCAACCAGAAAGUCUGCAAUCAUUUUAAGGGUA [A27G U57C U124C] | 0.49

Variant | self-cleavage
GUUAACGGUCAUAGGCCAUGGAAACUAGGAGCACCAUUUCGCUGCCAGUGAAGAAAUGAACAAAGAAAAUCUGGGCCUGGCAGGCAUCAAAGGAAGUAGUCUUGCGCUCAACCAGAAAGUCUGUAAUCAUUUUAAGGGUA [A78U A92G A96G] | 0.24
GUUAACGGUCAUAGGCCAUGGAAACUAGGAGCACCUUUUCGCUGCCAGUGAAGAAAUGAACAAAGAAAAUCUGGGCCAUGCAGGCAUCAAAAGAAAUAGUCUUGCGCUCAACCGGAAAGUCUGCAAUCAUUUUAAGGGUA [A36U G79U A114G U124C] | 0.01
GUUAACGGUCAUAGGCCAUGGUAACUAGGAGCACCAUUUCGCUGCCAGAGAAGAAAUGAACAAAGAAAAUCUGGGCCAGGCAGGCAUCAAAAGAAAUAGUCUUGCGCUCAACCAGGAAGUCUGUAAUCAUUUUAAGGGUA [A22U U49A A116G] | 0.4
GUUAACGGUCAUAGGCCAUGGAAACUAGGGGCACCAUUUCGCUGCCAGUGAAGAAAUGAACAGAGAAGAUCUGGGCCAGGCAGGCAUCAAAAGAAAUAGUCUUGCGCUCAACCAGUAAGUCUGUAAUCAUUUUAAGGGUA [A30G A63G A68G A116U] | 0.19
GUUAACGGUCAUAGGCCAUGGAAACUAGGAGCACCACUUCGCUGCCAGUGAAGAAAUGAACAAAGAAAAUCUGGUCCAGGCAGGCAUCAGAAGAAAUAGUCUUGCGCUCAACCAGAUAGUCUGUAGUCAUUUUAAGGGUA [U37C G75U A90G A117U A126G] | 0.05
GUUAACGGUCAAAGGCCGUGGAAACUGGGAGCACCAUGUCGCUGCCAGUGAAGAAAUGAACAAAGAAAAUCUGGGCCAGGCAGGCAUCAAAAGAAAUAGUCUUGCGCUCAACCAGAAAGUCUGUAAUCAUUAUAAGGGUA [U12A A18G A27G U38G U132A] | 0.69
GAUAACGGUCAUAGGCCAUGGAAACUAGGAGCACCAUUUCGCUGCCAGUGAAGAAAUGAACAAAGUAAAUCUGGGCCAGGCAGGCAUCAAAAGAUAUAGUCUUGCGCUCAACCAGAAAGUCUGUAAUCAAUUUAAGGGUA [U2A A66U A95U U130A] | 1.18
GUUAACGGCCAUAGGCCAUGGAAACUAGGAGCACCACUUCGCUGCCAGUGAGGAAAUGAACAAAGAAAAUCUGGGCCAGGCAGGCAUCAAAAGAAAUAGUCUUGCGCUCAGCCAGAAAGUCUGUAAUCAUUUUAAGGGUA [U9C U37C A52G A111G] | 0.02
GUUAACGGUCAUAGGCCAUGGAAACUAGGAGCACCAUCUCACCGCCAGUGAAGAAAUGAGCAAAGAAAAUCUGGGCCAGGCAGGCAUCAAAAGAAGUAGUCUUGCGCUCAACCAGAAAGUCUGUAAUCAUUCUAAGGGUA [U38C G41A U43C A60G A96G U132C] | 1.12
GUUAACGGUCAUAGGCCAAGGAAACUAGGAGCACCAUUUCGCUGCCUGUGAAGAAAUGAACAAAGAAAAUCCGGGCCAGGCAGGCAUCAAAAGAAAUAGUCUUGCGCUCAACCAGAAGGUCUGUAAUCAUUUUAAGGGUA [U19A A47U U72C A118G] | 0
GUUAACGGUCAUAGGCCAUGGAAACUAGGAGCACCAUUUCGCUGCCAGUGAAGAAAUGGACAAAGAAAAUCUGGGCCAGGCAGGCAUCAAAAGAAAUAGUCUCGCGCUCAACCAGAAAGCCUGUAAUCAUUCUAAGGGUA [A59G U103C U120C U132C] | 0.24
GUUAACGGUCAUAGGCCAUGGAAACUAGGAGCACCAUUUCGCUGCCAGUGAAGAAAUGAUCAAAGAAGAUCUGGGCCAGGCAGGCAUCAAAAGAAAUAGUCUUGCGCUCAACCAGAAAGUCUGUAAUCAUUUUAAGGGCA [A60U A68G U139C] | 1.5
GUUAACGGUCAUAGGCCAUGGAGACUAGGAGCACCAUUUCGCUGCCAGUGAGGAAAUGAACAAAGAAAAUCUGGGCCAGGUAGGCAUCAAAAGAAAUAGUCUUGCGCUCAACCAGAAGGUCUGUAAUCAUUUUAAGGGUA [A23G A52G C81U A118G] | 0.41
GUUAACGGUCAUAGGCCAUGGAAACUAGGAGCACCACUUCGCUGCCAGUGAAGAAGUGAACAAAGAAAAUCUGGGCCAGGCAGGCAUCGAAAGAAAUAGUCUUGCGCUCAACCAGAAAGUCCGUAAUCAUUUUAAGGGUA [U37C A56G A89G U122C] | 1.63
GUUAACGGUCAUAGGCCAUGGAAACGAGGAGCACCAUUUCGCUGCCAGUGAAGAAAUGAACAAGGAAAAUCUGGGCCAGGCAGGCAUCAAAAGAAAUAGUCUUGCGCUCAACCGGAAAGUCUGUAAUCAUUUUAAGGGUA [U26G A64G A114G] | 0.44
GUUAACGGUCAUAGGCCAUGGAAACUAGGAGCACCAUUUCGCUGCCAGUGAAGAAAUGAACAAAGAAAAUCUGGGCCUGGCAGGCACCUAAAGAAAUAGUCUUGCGCUCAACCAGAAAGCCUGUAAUCAUUUUAAGGGUA [A78U U87C A89U U120C] | 0.09
GUUAACGGUCAUGGGCCAUGGAAACUAGGAGCACCAUUUCGCUGCCAGUGAAGAAAUGAACAAAGAAAAUCUGGGCCGGGCAGGCAUCAAAAGAAAUAGUCUUGCGCUCAACCAGAAAGUCUGUACUCAUUUUAAGGGUA [A13G A78G A126C] | 0.13
GUUAACGGUCAUAGGCCAUGGAAGCUAGGAGCACCGUUUCGCUGCCAGUGAAGAAAUGAACAAAGAAAACCUGGGCCAGGCAGGCAUCAAAAGAAAUAGUCUUGCGCUCAACCAGAAAGUCUGUAAUCAUUUUAAGGGUA [A24G A36G U70C] | 1.05
GAUAACGGUCAUAGGCCAUGGAAACUAGGAGCACCAUUUCGCUGCCAGUGAAGAAAUGAACAAAGAAAAUCUGGGCCAGGCAGGCAUCAAAAGAAAUAGCCUUGCGCUCAACCAGAAGGUCUGUAACCAUUUUAAGGGUA [U2A U100C A118G U127C] | 1.18
GUUAACGGUCGUAGGCCAUGGAAGCUGGGAGCACCAUUUCGCUGCCAGUGAAGAAAUGAACAAAGAAAAUCUGGGCCAGGCAGGCAUCAAAAGAAAUAGUCUUGCGCUCAACCAGAGAGUCUGUAAUCAUUUUAAGGGUA [A11G A24G A27G A117G] | 1.4
